The source of these data is the supplement of paper PMC12217912.

To fix the notation:
B1: TEV protease; numbered along this chain (parent)
chain: MGESLFKGPRDYNPISSSICHLTNESDGHTTSLYGIGFGPFIITNKHLFRRNNGTLVVQSLHGVFKVKDTTTLQQHLVDGRDMIIIRMPKDFPPFPQKLKFREPQREERICLVTTNFQTKSMSSMVSDTSCTFPSGDGIFWKHWIQTKDGQCGSPLVSTRDGFIVGIHSASNFTNTNNYFTSVPKNFMELLTNQEAQQWVSGWRLNADSVLWGGHKVFMVKPEEPFQPVKEATQL

Some of the results follow. Sequences were assembled here from the parent chain. Values near 0.05 are background.

The variants in the experiment derive from B1. The experiment in a line: raw area under fraction-flipped curve 0-4 h after induction (AUC4h, not background-subtracted), DNA-recorder readout of cleavage of the substrate (dimensionless); higher = more cleavage of the substrate by the protease variant. The following applies: temperature: 34 °C; time window: 0-4 h after rhamnose induction. On the procedure: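 In vivo DNA recorder in E. coli TOP10(DE3) ΔrhaA at 34 °C. Each TEVp single-site mutant (parent TEVp 0) is paired with a single-site variant of the 7-mer TEVs (canonical ENLYFQ|S). The substrate sits between flexible linkers in a Bxb1-sfGFP-TEVs-SsrA fusion, so cleavage stabilises Bxb1 and speeds flipping of a recombination array, read by NGS. The value is the raw area under the fraction-flipped curve over 0-4 h after rhamnose induction (AUC4h), with ≥20 reads per time point. It is not background-subtracted; inactive controls average about 0.047.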
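Also: Bxb1 expression induced with 0.2% (w/v) L-rhamnose at OD600 near 0.5, cultures sampled hourly, flipped fraction per protease–substrate barcode pair counted by paired-end Illumina sequencing.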

As for MGESLFKGPRDYNPISSSICHLTNESDGHTTSLYGIGFGPFIITNKHCFRRNNGTLVVQSLHGVFKVKDTTTLQQHLVDGRDMIIIRMPKDFPPFPQKLKFREPQREERICLVTTNFQTKSMSSMVSDTSCTFPSGDGIFWKHWIQTKDGQCGSPLVSTRDGFIVGIHSASNFTNTNNYFTSVPKNFMELLTNQEAQQWVSGWRLNADSVLWGGHKVFMVKPEEPFQPVKEATQL [L48C], the “area with substrate ENLYFQA” value turned out to be 0.063, the “area with substrate ENLYFQC” value is 0.0996, the “area with substrate ENLYFQD” value came out at 0.0626 and the “area with substrate ENLYFQG” value was found to be 0.068. The “area with substrate ENLYFQH” value was 0.0716, the “area with substrate ENLYFQI” value was 0.079, the “area with substrate ENLYFQK” value was found to be 0.0596 and the “area with substrate ENLYFQL” value was 0.0623. For the same variant, the “area with substrate ENLYFQM” value worked out at 0.0717, the “area with substrate ENLYFQN” value was determined as 0.0725, the “area with substrate ENLYFQP” value worked out at 0.057 and the “area with substrate ENLYFQR” value was 0.0725. Also, the “area with substrate ENLYFQS” value amounted to 0.0823, the “area with substrate ENLYFQT” value was 0.0544, the “area with substrate ENLYFQV” value came out at 0.0676 and the “area with substrate ENLYFQY” value amounted to 0.0547.
Regarding MGESLFKGPRDYNPISSSICHLTNESDGHTTSLYGIGFGPFIITNSHLFRRNNGTLVVQSLHGVFKVKDTTTLQQHLVDGRDMIIIRMPKDFPPFPQKLKFREPQREERICLVTTNFQTKSMSSMVSDTSCTFPSGDGIFWKHWIQTKDGQCGSPLVSTRDGFIVGIHSASNFTNTNNYFTSVPKNFMELLTNQEAQQWVSGWRLNADSVLWGGHKVFMVKPEEPFQPVKEATQL [K46S], the “area with substrate ENLYFQA” value turned out to be 0.107, the “area with substrate ENLYFQC” value was determined as 0.0878, the “area with substrate ENLYFQD” value worked out at 0.0657 and the “area with substrate ENLYFQF” value turned out to be 0.0688. The “area with substrate ENLYFQG” value amounted to 0.119, the “area with substrate ENLYFQI” value was 0.0561, the “area with substrate ENLYFQK” value was found to be 0.0603 and the “area with substrate ENLYFQL” value was determined as 0.0581. Also, the “area with substrate ENLYFQM” value stood at 0.0763, the “area with substrate ENLYFQN” value came out at 0.0634, the “area with substrate ENLYFQP” value is 0.0682 and the “area with substrate ENLYFQQ” value is 0.0608. Besides, the “area with substrate ENLYFQR” value came to 0.0554, the “area with substrate ENLYFQS” value is 0.0962, the “area with substrate ENLYFQT” value was 0.0585 and the “area with substrate ENLYFQV” value was determined as 0.0485. Also, the “area with substrate ENLYFQW” value worked out at 0.0593 and the “area with substrate ENLYFQY” value was 0.0924.
On to MGESLFKGPRDYNPISSSICHLTNESDGHTTSLYGIGFGSFIITNKHLFRRNNGTLVVQSLHGVFKVKDTTTLQQHLVDGRDMIIIRMPKDFPPFPQKLKFREPQREERICLVTTNFQTKSMSSMVSDTSCTFPSGDGIFWKHWIQTKDGQCGSPLVSTRDGFIVGIHSASNFTNTNNYFTSVPKNFMELLTNQEAQQWVSGWRLNADSVLWGGHKVFMVKPEEPFQPVKEATQL [P40S], for which the “area with substrate ENLYFQA” value is 0.106, the “area with substrate ENLYFQC” value was determined as 0.118, the “area with substrate ENLYFQD” value came out at 0.0826 and the “area with substrate ENLYFQF” value amounted to 0.0906. Moreover, the “area with substrate ENLYFQG” value was 0.113, the “area with substrate ENLYFQH” value worked out at 0.077, the “area with substrate ENLYFQI” value came out at 0.0505 and the “area with substrate ENLYFQK” value was determined as 0.0628. In addition, the “area with substrate ENLYFQL” value stood at 0.0486, the “area with substrate ENLYFQM” value was 0.0861, the “area with substrate ENLYFQN” value came to 0.0814 and the “area with substrate ENLYFQP” value came out at 0.0611. The “area with substrate ENLYFQR” value was determined as 0.0603, the “area with substrate ENLYFQS” value is 0.108, the “area with substrate ENLYFQT” value was found to be 0.0638 and the “area with substrate ENLYFQV” value is 0.0565. The “area with substrate ENLYFQW” value is 0.0638.
Regarding MGESLFKGPRDYNPISSSICHLTNESDGHTTSLYGIGFGGFIITNKHLFRRNNGTLVVQSLHGVFKVKDTTTLQQHLVDGRDMIIIRMPKDFPPFPQKLKFREPQREERICLVTTNFQTKSMSSMVSDTSCTFPSGDGIFWKHWIQTKDGQCGSPLVSTRDGFIVGIHSASNFTNTNNYFTSVPKNFMELLTNQEAQQWVSGWRLNADSVLWGGHKVFMVKPEEPFQPVKEATQL [P40G], the “area with substrate ENLYFQA” value turned out to be 0.0985, the “area with substrate ENLYFQC” value stood at 0.136, the “area with substrate ENLYFQF” value was 0.0965 and the “area with substrate ENLYFQG” value turned out to be 0.0995. Besides, the “area with substrate ENLYFQI” value is 0.0603, the “area with substrate ENLYFQK” value came out at 0.0626, the “area with substrate ENLYFQL” value turned out to be 0.0718 and the “area with substrate ENLYFQM” value was determined as 0.0871. Besides, the “area with substrate ENLYFQN” value turned out to be 0.0868, the “area with substrate ENLYFQP” value turned out to be 0.0649, the “area with substrate ENLYFQR” value was determined as 0.0598 and the “area with substrate ENLYFQS” value is 0.113. In addition, the “area with substrate ENLYFQT” value is 0.064, the “area with substrate ENLYFQV” value was 0.0599, the “area with substrate ENLYFQW” value came out at 0.0884 and the “area with substrate ENLYFQY” value worked out at 0.0899.
With MGESLFKGPRDYNPISSSICHLTNESDGHTTSLYGIGFGFFIITNKHLFRRNNGTLVVQSLHGVFKVKDTTTLQQHLVDGRDMIIIRMPKDFPPFPQKLKFREPQREERICLVTTNFQTKSMSSMVSDTSCTFPSGDGIFWKHWIQTKDGQCGSPLVSTRDGFIVGIHSASNFTNTNNYFTSVPKNFMELLTNQEAQQWVSGWRLNADSVLWGGHKVFMVKPEEPFQPVKEATQL [P40F], the “area with substrate ENLYFQA” value came out at 0.0567, the “area with substrate ENLYFQC” value was 0.102, the “area with substrate ENLYFQD” value came out at 0.065 and the “area with substrate ENLYFQF” value was 0.0781. Also, the “area with substrate ENLYFQG” value was determined as 0.0776, the “area with substrate ENLYFQH” value stood at 0.0718, the “area with substrate ENLYFQI” value amounted to 0.0681 and the “area with substrate ENLYFQL” value is 0.0473. The “area with substrate ENLYFQM” value came to 0.106, the “area with substrate ENLYFQN” value is 0.0719, the “area with substrate ENLYFQR” value worked out at 0.0552 and the “area with substrate ENLYFQS” value is 0.0874. Besides, the “area with substrate ENLYFQT” value was found to be 0.0658, the “area with substrate ENLYFQW” value was determined as 0.0538 and the “area with substrate ENLYFQY” value turned out to be 0.0636.
With MGESLFKGPRDYNPISSSICHLTNESDGHTTSLYGIGFGDFIITNKHLFRRNNGTLVVQSLHGVFKVKDTTTLQQHLVDGRDMIIIRMPKDFPPFPQKLKFREPQREERICLVTTNFQTKSMSSMVSDTSCTFPSGDGIFWKHWIQTKDGQCGSPLVSTRDGFIVGIHSASNFTNTNNYFTSVPKNFMELLTNQEAQQWVSGWRLNADSVLWGGHKVFMVKPEEPFQPVKEATQL [P40D], the “area with substrate ENLYFQA” value stood at 0.149, the “area with substrate ENLYFQD” value worked out at 0.0584, the “area with substrate ENLYFQE” value amounted to 0.0874 and the “area with substrate ENLYFQF” value was found to be 0.0892. Further, the “area with substrate ENLYFQG” value came out at 0.086, the “area with substrate ENLYFQH” value turned out to be 0.0919, the “area with substrate ENLYFQK” value is 0.0567 and the “area with substrate ENLYFQM” value amounted to 0.081. Moreover, the “area with substrate ENLYFQN” value stood at 0.0751, the “area with substrate ENLYFQP” value was found to be 0.0729, the “area with substrate ENLYFQR” value came to 0.0433 and the “area with substrate ENLYFQS” value was 0.112. Moreover, the “area with substrate ENLYFQT” value was 0.0781, the “area with substrate ENLYFQW” value came to 0.075 and the “area with substrate ENLYFQY” value stood at 0.0812.
On to MGESLFKGPRDYNPISSSICHLTNESDGHTTSLYGIGFGCFIITNKHLFRRNNGTLVVQSLHGVFKVKDTTTLQQHLVDGRDMIIIRMPKDFPPFPQKLKFREPQREERICLVTTNFQTKSMSSMVSDTSCTFPSGDGIFWKHWIQTKDGQCGSPLVSTRDGFIVGIHSASNFTNTNNYFTSVPKNFMELLTNQEAQQWVSGWRLNADSVLWGGHKVFMVKPEEPFQPVKEATQL [P40C], for which the “area with substrate ENLYFQA” value turned out to be 0.123, the “area with substrate ENLYFQD” value is 0.065, the “area with substrate ENLYFQE” value stood at 0.0679 and the “area with substrate ENLYFQG” value amounted to 0.143. In addition, the “area with substrate ENLYFQH” value is 0.0826, the “area with substrate ENLYFQI” value came out at 0.0492, the “area with substrate ENLYFQK” value turned out to be 0.068 and the “area with substrate ENLYFQL” value is 0.0546. Moreover, the “area with substrate ENLYFQM” value turned out to be 0.0928, the “area with substrate ENLYFQN” value is 0.0796, the “area with substrate ENLYFQQ” value was determined as 0.0826 and the “area with substrate ENLYFQR” value was 0.0612. The “area with substrate ENLYFQS” value turned out to be 0.109, the “area with substrate ENLYFQV” value was determined as 0.0735 and the “area with substrate ENLYFQW” value stood at 0.0502.
For MGESLFKGPRDYNPISSSICHLTNESDGHTTSLYGIGFGRFIITNKHLFRRNNGTLVVQSLHGVFKVKDTTTLQQHLVDGRDMIIIRMPKDFPPFPQKLKFREPQREERICLVTTNFQTKSMSSMVSDTSCTFPSGDGIFWKHWIQTKDGQCGSPLVSTRDGFIVGIHSASNFTNTNNYFTSVPKNFMELLTNQEAQQWVSGWRLNADSVLWGGHKVFMVKPEEPFQPVKEATQL [P40R], the “area with substrate ENLYFQA” value stood at 0.0993, the “area with substrate ENLYFQC” value amounted to 0.134, the “area with substrate ENLYFQK” value came to 0.0521 and the “area with substrate ENLYFQL” value came out at 0.0635. Besides, the “area with substrate ENLYFQM” value stood at 0.0952, the “area with substrate ENLYFQN” value amounted to 0.0794, the “area with substrate ENLYFQP” value came to 0.0422 and the “area with substrate ENLYFQR” value amounted to 0.0632. In addition, the “area with substrate ENLYFQS” value stood at 0.108, the “area with substrate ENLYFQT” value stood at 0.037 and the “area with substrate ENLYFQV” value was 0.0618.
On to MGESLFKGPRDYNPISSSICHLTNESDGHTTSLYGIGFGHFIITNKHLFRRNNGTLVVQSLHGVFKVKDTTTLQQHLVDGRDMIIIRMPKDFPPFPQKLKFREPQREERICLVTTNFQTKSMSSMVSDTSCTFPSGDGIFWKHWIQTKDGQCGSPLVSTRDGFIVGIHSASNFTNTNNYFTSVPKNFMELLTNQEAQQWVSGWRLNADSVLWGGHKVFMVKPEEPFQPVKEATQL [P40H], for which the “area with substrate ENLYFQA” value was 0.111, the “area with substrate ENLYFQC” value amounted to 0.0902, the “area with substrate ENLYFQD” value worked out at 0.0992 and the “area with substrate ENLYFQH” value came out at 0.0875. The “area with substrate ENLYFQI” value came out at 0.0656, the “area with substrate ENLYFQK” value came to 0.0817, the “area with substrate ENLYFQL” value turned out to be 0.0607 and the “area with substrate ENLYFQM” value is 0.0945. Moreover, the “area with substrate ENLYFQN” value turned out to be 0.0761, the “area with substrate ENLYFQP” value turned out to be 0.0583, the “area with substrate ENLYFQQ” value turned out to be 0.0841 and the “area with substrate ENLYFQR” value is 0.065. Moreover, the “area with substrate ENLYFQS” value was determined as 0.11, the “area with substrate ENLYFQT” value came to 0.0669, the “area with substrate ENLYFQW” value came out at 0.0655 and the “area with substrate ENLYFQY” value amounted to 0.0715.
